# Results as given in paper PMC6919601, “Identification of Plasmodium dipeptidyl aminopeptidase allosteric inhibitors by high throughput screening” (PLoS ONE, 2019).
# The whole screen tested about 110,000 compounds, of which about 230 (0.21%) showed an effect of 50% or more. This is one part of the list.
# Target: DPAP1 (Plasmodium falciparum, UniProt Q8IIJ9)
# Assay: primary screen, percent inhibition; read by cleavage of a fluorogenic dipeptide substrate; higher = more effect of the substance
# Set-up: species or system P. falciparum D10 trophozoite lysates; single well
# 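Also: 30 min substrate incubation versus DMSO and 10 µM JCP410 controls.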
# DPAP1, sequence (Q8IIJ9 whole entry, looked up): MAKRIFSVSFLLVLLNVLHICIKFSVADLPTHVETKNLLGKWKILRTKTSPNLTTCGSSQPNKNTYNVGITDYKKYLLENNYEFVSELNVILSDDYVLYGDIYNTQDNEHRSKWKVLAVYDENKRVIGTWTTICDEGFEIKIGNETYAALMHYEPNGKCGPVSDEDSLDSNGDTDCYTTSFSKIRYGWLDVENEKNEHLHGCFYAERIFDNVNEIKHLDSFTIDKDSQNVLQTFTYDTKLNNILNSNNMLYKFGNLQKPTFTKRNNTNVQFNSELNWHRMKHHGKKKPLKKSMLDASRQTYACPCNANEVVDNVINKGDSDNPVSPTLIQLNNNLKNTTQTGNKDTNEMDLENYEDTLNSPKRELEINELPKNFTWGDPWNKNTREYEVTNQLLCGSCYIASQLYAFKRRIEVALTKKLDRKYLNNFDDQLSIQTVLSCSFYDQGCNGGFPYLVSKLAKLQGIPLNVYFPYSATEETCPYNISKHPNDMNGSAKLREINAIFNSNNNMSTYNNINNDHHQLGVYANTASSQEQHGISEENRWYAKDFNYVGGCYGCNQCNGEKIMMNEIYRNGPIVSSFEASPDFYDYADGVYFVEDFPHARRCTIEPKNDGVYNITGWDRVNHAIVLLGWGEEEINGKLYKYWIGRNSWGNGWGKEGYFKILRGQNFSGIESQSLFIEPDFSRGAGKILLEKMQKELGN
row,SMILES,% Inhibition @ 10 uM [%]
1,CCc1sc(C2C(C#N)=C(N)Oc3[nH]nc(C)c32)cc1Br (stereo not shown),-10.3
2,Cc1nsc2ccc3ccsc3c12,3.36
3,NC(=O)c1c(NC(=O)C2CCCCC2)sc2c1CCCC2,7.76
4,Brc1ccc(-c2nc(Cc3ccccc3)no2)cc1,5.68
5,CCOc1ccccc1C(=O)Nc1c(-c2ccc(OC)cc2)nc2cc(C)ccn12,9.6
6,CCOc1ccc(-c2cc(NC(=O)Cn3ncc4c3-c3ccccc3OC4)on2)cc1,0.981
7,CCCCNC(=O)C(C)n1nc(C)c2c(C)n(-c3ccccc3)nc2c1=O (stereo not shown),3.33
8,CSc1nc2c(c(=O)n1-c1ccccc1)C1(CCCCC1)Cc1ccccc1-2,-5.62
9,Cc1ccc(S(=O)(=O)N2CCC(C(=O)N3CCCC(C)C3)CC2)cc1 (stereo not shown),-2.87
10,CSc1cc(S(=O)(=O)c2ccc(Cl)c(SC)c2)ccc1Cl,1.24
11,O=C(C1=C(O)C(=O)N(CCO)C1c1ccc(F)cc1)c1ccc(Cl)cc1 (stereo not shown),-2.32
12,COc1ccc(-c2nc(O)c3c(n2)Oc2ccc(Cl)cc2C3)cc1,-1.06
13,Brc1ccc(-c2csc(-c3ccncc3)n2)cc1,-2.92
14,COc1ccccc1/C=C/C(=O)c1ccsc1,1.87
15,COc1cc(OC)c2c(-c3ccccc3)cc(=O)oc2c1,4.67
16,O=C(Nc1cccc(C(F)(F)F)c1)/C(=C/c1cccnc1)NC(=O)c1cccc(Br)c1,21.5
17,CCCc1ccc(OCc2ccc(C(=O)OC)o2)cc1,-1.33
18,COc1ccc2nc(C)c3cc(C)oc3c2c1,-6.83
19,Clc1ccc(Sc2c(-c3ccccc3)nc3ccccn23)cc1,-5.51
20,COc1cc(Cl)c(S(=O)(=O)N2CCN(Cc3ccc4c(c3)OCO4)CC2)cc1Cl,-4.33
21,Cc1cc(Oc2ccc(=O)n(C)n2)nc(SCC(N)=O)n1,-10.8
22,CCC1CCC(NCCN2CCOCC2)CC1 (stereo not shown),-1.78
23,COc1ccccc1-c1c(C)nn2c(N(C)C3CCCCC3)cc(C)nc12,0.238
24,Oc1nc(/C=C/c2ccc(Cl)cc2Cl)cc(C(F)(F)F)n1,4.54
25,CCCC(=O)N1CCN(Cc2ccc3c(c2)OCO3)CC1,-3.12
26,Cc1n[nH]c(C)c1CCCOc1ccc(C(C)(C)C)cc1,-1.62

row,SMILES,% Inhibition @ 10 uM [%]
1,COc1ccc(C(=O)N2CCN(C(=O)Cc3ccccc3)CC2)cc1,0.587
2,CCN(C(=O)c1cccs1)c1ccccc1,10.5
3,CN(CC(=O)O)c1ccccc1C(=O)O,3.16
4,O=C(Cn1ccc2cc(S(=O)(=O)N3CCCC3)ccc21)NCc1ccco1,-3.69
5,CCOC(=O)C1CCCN(C2CCN(CC)CC2)C1 (stereo not shown),3.19
6,O=C(/C=C/c1ccccc1)Nc1nnc(/N=C/c2ccc(Br)s2)s1,-0.615
7,CCN(CC)CCCNC(=O)c1cc(-c2ccc(O)cc2)on1,1.37
8,COc1ccc(CN2CCOC(=O)C2=O)cc1OC,0.0539
9,Cn1nnnc1SCCCNCc1ccc2c(c1)OCO2,2.25
10,Nc1ccc(C(=O)Nc2cccnc2)c(C(=O)O)c1,1.73
11,Cc1nc(N2C(=O)C(O)=C(C(=O)c3ccccc3)C2c2ccc(Br)cc2)sc1C (stereo not shown),15.2
12,O=C1NCCCC1C(=O)NCC(O)CO (stereo not shown),1.82
13,O=S(=O)(c1ccc(F)cc1)N1CN2CCN(C2)C1,-2.91
14,COc1ccc2cc(-c3nc(-c4cccs4)no3)c(=O)oc2c1,10.3
15,O=C(c1cccs1)N1CCN(C/C=C/c2ccccc2)CC1,6.8
16,COc1ccc(C2=NN(C(=O)CCC(=O)O)C(c3ccc(OC)cc3)C2)cc1 (stereo not shown),-11.2
17,Cc1ccccc1C(=O)Nc1sc2c(c1C(=O)N1CCN(C)CC1)CCC(C)C2 (stereo not shown),-0.46
18,Nc1ccc(S(=O)(=O)N2CCCCC2)cc1,2.94
19,COc1cc(NC(=O)CSc2nc(-c3ccc4c(c3)OCO4)ccc2C#N)cc(OC)c1OC,2.68
20,COc1ccccc1CCNCc1c(C(=O)O)c(C)n(Cc2ccccc2C)c1C,4.53
21,CCCOc1ccc(N2C(=O)CC(NCC34CC5CC(CC(C5)C3)C4)C2=O)cc1 (stereo not shown),-6.02
22,Cn1nccc1CNC(=O)c1ccc(COc2cc(Cl)ccc2Cl)o1,2.4
23,O=S(=O)(c1ccc2cccc3c2c1CC3)N1CCSC1c1ccco1 (stereo not shown),0.727
24,Cc1ccc(C(=O)n2nc(-c3ccccc3)nc2NCc2ccccc2)cc1,2.31
25,CCCN1CCC(N2CCN(c3cccc(Cl)c3)CC2)CC1,-6.85
26,COc1cc(CN2CCN(C3C4CC5CC(C4)CC3C5)CC2)cc(OC)c1O (stereo not shown),-9.18

row,SMILES,% Inhibition @ 10 uM [%]
1,COc1cc2c(cc1OC)-c1nnnn1C(C)(C)C2,4.57
2,COCCNC(=O)CCc1c(C)nc2cc(-c3ccc(Cl)cc3)nn2c1C,1.26
3,Cc1ccc(-c2cc(C(=O)NCC3CCCO3)c3ccccc3n2)o1 (stereo not shown),-9.11
4,COc1cccc(/C=C2/S/C(=N\c3ccc(C)cc3)N(C)C2=O)c1OC,-6.05
5,O=C(NCC1CCN(Cc2ccc(F)cc2)CC1)C(Cc1ccccc1)N1Cc2ccccc2C1=O (stereo not shown),-1.58
6,CCOc1ccc(CN(C2CC2)S(=O)(=O)c2ccc(S(=O)(=O)N(C)C)cc2)cc1,5.2
7,COc1ccc(CNC(=O)C2CCC(C/N=c3/c(N4CCOCC4)c(O)c3=O)CC2)cc1 (stereo not shown),-7.72
8,O=C(CSc1nnc(Cc2ccccc2)o1)NC1CCCCC1,0.166
9,CCCCN1C(=O)C(O)(CCCC)C(=O)c2ccccc21 (stereo not shown),3.92
10,Cc1ccc(C)c(-c2csc(NC(=O)c3cc(C)oc3C)c2C#N)c1,2.08
11,COc1ccc(C(=O)C2=C(O)C(=O)N(c3ccc(C)c(Br)c3)C2c2cccnc2)cc1 (stereo not shown),-3.34
12,COc1cc(C/N=c2/c(-c3cc(C)c(C)cc3C)c(O)c2=O)cc(OC)c1OC,-3.05
13,Cn1c(-[n+]2ccccc2)c(/C=N/NC(N)=S)sc1=O,1.91
14,CC(C(=O)N(Cc1ccccc1)Cc1ccccc1)N1C(=O)c2ccccc2C1=O (stereo not shown),2.26
15,CCOCCO/C(O)=C1\C(C)=NC2=C(C(=O)CC(C)(C)C2)C1c1cccc(Cl)c1Cl (stereo not shown),-4.77
16,Cc1ccc(NC(=O)/C=C/c2ccccc2Cl)c(C)c1,-0.351
17,Cc1ccc(N2N=C(c3ccccc3)CC2c2ccccc2)cc1 (stereo not shown),-5.11
18,CCOC(=O)C1=C(C)NC(=O)NC1c1ccc(-c2cc(C(F)(F)F)ccc2Cl)o1 (stereo not shown),-6.68
19,O=C(NCCn1ccc2ccccc21)c1ccc(C(F)(F)F)cc1,-7.51
20,CCN(CC)CCNC(=O)C1=C(C)C(=O)OC12CCCCC2,-1.89
21,Cc1ccc(S(=O)(=O)N2CC=C(C(=O)NCCC3=CCCCC3)CC2)cc1,1.27
22,CC1=C(C(=O)N2CCC(N3CCCCC3)CC2)C2(CCCCC2)OC1=O,0.745
23,COCCNC(=O)c1ccc(-c2ccccc2)s1,-0.447
24,CCc1ccccc1NC(=O)C(CC)Oc1ccccc1 (stereo not shown),5.31
25,O=c1c2ccccc2ncn1Cc1ccccc1,3.99
26,COc1cc(C(=O)Nc2ccc(-c3nc4ncccc4o3)cc2)cc(OC)c1OC,0.992

row,SMILES,% Inhibition @ 10 uM [%]
1,Cc1nc(C)c(-c2csc(Nc3ncccn3)n2)s1,-0.711
2,CCOc1cc(C2C3=C(CCCC3=O)OC3=C2C(=O)CCC3)cc(Br)c1O,4.03
3,CCOCc1c(SC)sc(SC)c1COCC,-0.0372
4,COc1ccc(CNc2nc(-c3cccnc3)nn2C(=O)COc2ccc(Cl)cc2)cc1,-1.15
5,CCOc1ccc(/C=C2\CN(C(C)C)CC3=C2OC(N)=C(C#N)C3c2ccc(OCC)cc2)cc1 (stereo not shown),0.746
6,O=C(NC1CCCC1)c1cnn2c(C(F)(F)F)cc(-c3ccc(Br)cc3)nc12,-3.13
7,Cc1nc2cc(Cl)ccc2n1Cc1ccccc1,3.16
8,CCOC(=O)c1c(NC(C)=O)[nH]c2ccc(OC)cc12,1.02
9,COc1cccc(C2CC(c3cccs3)=NN2c2ccc(F)cc2)c1OC (stereo not shown),0.219
10,Cc1ccc(N2CNC(=O)c3c(C)cc(C)nc32)cc1,0.528
11,Cc1ccc(-n2nc(C)c3c2OC(N)=C(C#N)C3c2ccccc2F)cc1 (stereo not shown),-4.4
12,Cc1ccc(C)n1-c1nnc(N2CCC(C(=O)NCC3CCCO3)CC2)s1 (stereo not shown),1.15
13,COc1ccc2c(c1)CCc1c(C(=O)N3CCN(Cc4ccccc4)CC3)noc1-2,-5.09
14,O=C(Nc1nc(-c2ccc3ccccc3c2)cs1)C1CC1,-0.46
15,Cc1nc2sc(-c3nc4ccccc4[nH]3)c(N)c2c(C)c1Cl,-0.891
16,CCC(C)NC(=O)c1cnn2c(C(F)(F)F)cc(-c3ccc(F)cc3)nc12 (stereo not shown),4.11
17,CCn1c(CN2CCCCC2C)nc2c1c(=O)n(C)c(=O)n2C (stereo not shown),-0.719
18,CO/C(O)=C1\C(C)=NC(C)=C(C(=O)OCCSc2ccccc2)C1C (stereo not shown),-2.42
19,CCC(Oc1ccccc1)C(=O)Nc1nnc(S(=O)(=O)N2CCOCC2)s1 (stereo not shown),4.86
20,O=C1CC(c2cccc(F)c2)c2c(O)nc3ccccc3c2O1 (stereo not shown),0.895
21,Cc1ccc(CCNC(=O)CN2N=C(c3ccccc3)CCC2=O)cc1,-1.21
22,Nc1nc2ccccc2n1CCCOc1ccc(F)cc1,-2.91
23,Clc1ccc(-c2nc(-c3cccnc3)no2)cc1Cl,-3.06
24,COc1ccc(C2C3CCc4ccc(OC)cc4C3=NN2C(C)=O)cc1 (stereo not shown),-3.55
25,CC1(C(=O)O)CCC(c2nc3ccccc3[nH]2)C1(C)C (stereo not shown),4.42
